Data reported in PubChem BioAssay (NCATS).
Some of the results follow. The main result of the screen is listed elsewhere. These columns were measured beside it and carry no call. The list favours compounds with an active or inconclusive main result. The note in brackets gives the kind of curve behind each potency; many fits are weak.

Test: qHTS Assay for Lipid Storage Modulators (AID 1519)
Settings: Drosophila S3 cells, BODIPY lipid droplet/cell ratio, laser cytometry, cells loaded with oleic acid
Summary of the method: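 Cells seeded at 5,000 per well were treated with compounds over a concentration series and loaded with oleic acid (400 uM, as added). Lipid droplet fluorescence (488 nm excitation, 500-530 nm channel) was read by laser-scanning cytometry and normalized to 20 uM Triacsin C.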

[1] = measured here: cell count channel max response
[2] = measured here: lipid (BODIPY) channel AC50
[3] = measured here: lipid channel max response
[4] = measured here: cell number channel AC50
Tags tell the direction and shape of the fitted curve.

Structure (SMILES)	max response [1]	AC50 [2]	max response [3]	AC50 [4]
O=c1c(-c2ccc(F)cc2)nc2cncnc2n1-c1ccccc1	20.4%	3.16 µM [rising, full curve, poor fit]	28.5%	–
COc1ccc(-c2nc3cnc(Oc4cccc(Cl)c4)nc3n(C[C@H]3CCCO3)c2=O)cc1	9.61%	25.1 µM [falling, single point]	-35.5%	–
c1ncc(-c2ccc3c(c2)OCO3)c(NCCc2cnc[nH]2)n1	23%	0.631 µM [rising, full curve, poor fit]	32.5%	–
COc1ccc(-n2c(=O)c(C)nc3cnc(N(C)C)nc32)cc1	11.3%	0.0708 µM [rising, full curve, poor fit]	14.7%	–
COCCn1c(=O)c(-c2cccs2)nc2cnc(N3CCOCC3)nc21	0.223%	3.55 µM [rising, single point]	-2.9%	–
O=C(c1csnn1)N1CCC[C@@]2(CCN(c3ccccc3)C2)C1	3.62%	–	8.41%	2.24 µM [rising, partial curve, poor fit]
CS(=O)(=O)Nc1cccc(-c2cncnc2NCc2ccccc2)c1	32.2%	–	41.4%	25.1 µM [rising, single point]
Cc1cccc(CNc2cc(-c3ccccc3Cl)ncn2)c1	13.4%	7.94 µM [rising, single point]	13.4%	–
COC(=O)N1CCC[C@@]2(CCN(Cc3nccs3)C2)C1	21.2%	0.00794 µM [rising, full curve, poor fit]	30.2%	–
O=c1nc2ccccc2c2n1C[C@H](CN1CCN(c3ccccc3)CC1)N2	65.5%	–	87.2%	5.62 µM [rising, partial curve, poor fit]
COc1ccc(-c2cc(=O)c3ccccc3o2)cc1OC	7.6%	0.00794 µM [rising, full curve, poor fit]	7.81%	–
CC(=O)NCCc1c[nH]c2ccc(O)cc12	22.7%	–	22.6%	5.62 µM [falling, partial curve, poor fit]
Nc1ccc(C(=O)NCC(=O)O)cc1	23.7%	39.8 µM [rising, single point]	41.4%	–
COc1cccc(Nc2ncc3nc(-c4cccs4)c(=O)n(C[C@H]4CCCO4)c3n2)c1	-5.65%	39.8 µM [falling, single point]	-42.3%	–
CCNc1ncc2nc(-c3ccccc3)c(=O)n(C3CC3)c2n1	26.1%	0.0126 µM [rising, full curve, poor fit]	21.1%	–
O=S(=O)(c1ccccc1)N1CCC2(CCN(c3ccccc3)CC2)CC1	16%	1.12 µM [rising, full curve, poor fit]	24.1%	–
COCCn1c(=O)c(CCc2ccccc2)nc2cnc(N(C)C)nc21	24.9%	0.562 µM [rising, full curve]	31.2%	–
COc1ccc(-c2nc3cnc(N(C)C)nc3n(Cc3ccc(F)cc3)c2=O)cc1	29.3%	2.51 µM [rising, partial curve]	40.4%	–
COCCn1c(=O)c(-c2ccc(Cl)cc2)nc2cnc(Oc3ccc(OC)cc3)nc21	-25%	1.58 µM [rising, partial curve]	-37.1%	–
COCCn1c(=O)c(-c2cc(F)cc(F)c2)nc2cnc(N3CCNCC3)nc21	17.8%	0.0316 µM [rising, full curve, poor fit]	23.7%	–
CN1CCN(c2ccnc(-c3cccnc3)n2)CC1	26.5%	11.2 µM [rising, partial curve, poor fit]	33.1%	–
COc1cccc(Nc2ncc3ncc(=O)n(Cc4ccc(F)cc4)c3n2)c1	5.57%	0.0708 µM [rising, full curve]	2.76%	–
NC1C(O)OC(CO)[C@@H](O)[C@@H]1O[C@H]1O[C@@H](C(=O)O)C(O)C(O)C1O (stereo not given in full)	27.9%	39.8 µM [rising, single point]	39%	–
CN1CCC(OC(c2ccccc2)c2ccccc2)CC1	27.7%	39.8 µM [rising, single point]	41.4%	–
Fc1ccc([C@H]2CCNC[C@H]2COc2ccc3c(c2)OCO3)cc1	65%	31.6 µM [rising, partial curve]	82.4%	–
